Laboratory results from article PMC4336329 (PLoS ONE, 2015).
The campaign covered roughly 310,000 compounds. About 2,200 (0.71%) showed an effect of 50% or more. Effects have a minus sign here. The list shows a part of the results.

Target: human ether-à-go-go-related gene (hERG) potassium channel (human, UniProt Q12809)
Assay: primary screen, population patch clamp on CHO cells stably expressing hERG

Sequence of human ether-à-go-go-related gene (hERG) potassium channel (Q12809 whole entry, looked up): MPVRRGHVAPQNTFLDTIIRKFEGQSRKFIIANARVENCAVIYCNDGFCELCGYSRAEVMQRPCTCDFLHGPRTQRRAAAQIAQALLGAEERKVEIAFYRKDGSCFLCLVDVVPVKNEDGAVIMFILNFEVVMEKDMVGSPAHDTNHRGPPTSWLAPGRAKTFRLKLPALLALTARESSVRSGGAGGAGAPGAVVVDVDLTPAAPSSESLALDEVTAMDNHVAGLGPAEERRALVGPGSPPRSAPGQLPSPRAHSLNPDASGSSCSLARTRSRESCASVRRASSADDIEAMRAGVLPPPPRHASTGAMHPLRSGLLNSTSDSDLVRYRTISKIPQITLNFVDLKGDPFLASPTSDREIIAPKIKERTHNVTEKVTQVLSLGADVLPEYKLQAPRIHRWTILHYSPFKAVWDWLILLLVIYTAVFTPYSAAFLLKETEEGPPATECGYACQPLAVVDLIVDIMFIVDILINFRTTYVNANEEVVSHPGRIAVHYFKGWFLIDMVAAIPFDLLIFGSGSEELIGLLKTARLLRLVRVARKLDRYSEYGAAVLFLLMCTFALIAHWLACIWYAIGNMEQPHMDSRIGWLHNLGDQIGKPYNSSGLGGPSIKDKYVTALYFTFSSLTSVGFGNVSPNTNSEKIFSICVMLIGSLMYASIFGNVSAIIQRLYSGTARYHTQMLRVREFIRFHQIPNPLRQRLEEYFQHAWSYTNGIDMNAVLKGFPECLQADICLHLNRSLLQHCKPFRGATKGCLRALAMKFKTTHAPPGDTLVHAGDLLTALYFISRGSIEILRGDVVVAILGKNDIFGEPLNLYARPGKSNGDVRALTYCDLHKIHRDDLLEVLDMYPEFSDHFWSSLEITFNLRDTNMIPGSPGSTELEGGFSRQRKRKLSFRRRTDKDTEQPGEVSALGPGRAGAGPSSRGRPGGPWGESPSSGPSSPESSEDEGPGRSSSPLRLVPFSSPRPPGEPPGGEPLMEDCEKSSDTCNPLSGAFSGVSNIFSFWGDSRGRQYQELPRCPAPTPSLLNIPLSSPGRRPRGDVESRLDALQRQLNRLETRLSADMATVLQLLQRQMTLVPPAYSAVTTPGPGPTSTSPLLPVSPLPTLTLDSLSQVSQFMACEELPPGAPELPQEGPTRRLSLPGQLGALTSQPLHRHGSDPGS

Compound	hERG current change (%, negative = inhibition) at 1uM [%]
CCN(CC)S(=O)(=O)c1ccc(N2CCOCC2)c(NC(=O)c2cccc(C#N)c2)c1	-1.31
Cc1cc2cc(CNC(=O)c3ccc(S(=O)(=O)N4CCCCC4)cc3)ccc2n1C	15.7
COc1ccc(-n2c(CN3CCN(c4ccccc4)CC3)nc3ccc([N+](=O)[O-])cc3c2=O)c(OC)c1	2.89
COc1cccc(C(=O)Nc2ccc3nc4n(c(=O)c3c2)CCCC4)c1	-32.8
COc1cccc(NC(=S)N2c3ccccc3CC2C)c1 (stereo not drawn)	7.84
Cc1nn(CC(=O)NCc2ccccn2)c(C)c1[N+](=O)[O-]	0.675
O=C(O)CCNC(=O)c1ccc(NC(=O)C(c2ccccc2)c2ccccc2)cc1	17.5
COc1ccc(/C=C/C(=O)NCC(=O)N/N=C(/CCC(=O)O)c2ccccc2)cc1	2.51
CCc1ccc(OCC(=O)OC(C)C(=O)NC2CC2)cc1 (stereo not drawn)	3.93
COC(=O)C1=C(c2c(C)noc2C)C[C@@H]2CC[C@H]1N2C(=O)NC1CCCCC1	10
CCOC(=O)c1cc(CNC(=O)c2c(C)oc3c2CCCC3)c(C)o1	5.61
NC(N)=NS(=O)(=O)c1ccc(NC(=S)NC(=O)c2ccc(Br)cc2)cc1	7.76
COc1ccc(OC)c(-c2csc(N(Cc3ccco3)C(=O)c3ccco3)n2)c1	15.3
O=c1[nH][nH]cc1C=NCc1cccc(C(F)(F)F)c1	13.6
COc1ccc(CN2CCN(CCc3ccccc3)C(CCO)C2)c(O)c1 (stereo not drawn)	-26.9
N#CC(Sc1ccccn1)c1ccc(Cl)cc1 (stereo not drawn)	-2.94
COc1ccc(C(=O)N(C)C2CCCN(Cc3ccccc3F)C2)cc1OC (stereo not drawn)	10.2
COc1ccccc1NC(=O)COc1ccc(C(=O)NC2CCCc3ccccc32)cc1OC (stereo not drawn)	11
CCOC(=O)/C=c1\s/c(=C\c2ccc3cc(OC)ccc3c2)c(=O)n1CC(=O)NCC1CCCO1 (stereo not drawn)	12.6
Cc1cc(C)nc(N2CCC(C(=O)Nc3ccc4c(c3)CCC4)CC2)n1	16.3
O=C(CSc1nc(C2CC2)nc2c1cnn2-c1ccccc1)Nc1c[nH]c(=O)[nH]c1=O	5.65
O=C1Nc2cc(C(=O)N3CCOCC3)ccc2S/C1=C\c1ccccc1	9.73

Compound	hERG current change (%, negative = inhibition) at 1uM [%]
O=C1C2CC=C(Cl)CC2C(=O)N1CCC[n+]1ccccc1.[Br-] (stereo not drawn)	-7.67
NNC(=O)CC1NCCN(Cc2ccccc2)C1=O (stereo not drawn)	14.4
CCCCC1CCCOC(C(=O)NCCNCCO)(C(F)(F)F)C1 (stereo not drawn)	13.7
CCOc1cc(CNCCc2ccccc2)ccc1OCC(=O)NC(C)(C)C.Cl	9.83
CCCC(=NCc1ccccc1)C1=C(O)C(C(=O)OC)C(C)(C)CC1=O (stereo not drawn)	5.64
COC(=O)c1cc(CNC(=O)c2ccccc2OCc2c(C)noc2C)ccc1OC	-16.3
COc1ccc(/C=N/OCC(=O)N(Cc2ccccc2)c2ccccc2C(=O)O)cc1	3.58
O=C(O)C1CC=CCC1C(=O)N1CCCC1 (stereo not drawn)	-1.33
CC(=O)NC(=S)Nc1ccccc1N1CCN(C(=O)c2ccccc2)CC1	10.6
COc1ccc(OC)c(NC(=O)c2cc(S(=O)(=O)N(C)C)ccc2N2CCCC2)c1	-18.1
COc1ccc(CN2CCNC(=O)C2CC(=O)N(C)CCc2cnn(C)c2)c(F)c1 (stereo not drawn)	11.8
CCCNC(=O)/C=C/C(=O)O	-2.69
c1ccc(C2=NNC(c3ccccn3)=NN2)nc1	11.4
Cc1c(C(=O)N(Cc2ccccc2)C2CCS(=O)(=O)C2)oc2ccccc12 (stereo not drawn)	4.86
COc1cc(C2C(C#N)=C(N)Oc3n[nH]c(-c4cccnc4)c32)ccc1OCC(N)=O (stereo not drawn)	5.86
CC1=CC(C)(C)N(S(=O)(=O)c2ccc(C)cc2)c2ccccc21	-0.428
CC(=O)Nc1ccc(NC(=O)CSC2=NS(=O)(=O)c3cc(Cl)ccc3N2)cc1	13.5
CCOC(=O)C(=O)Nc1ccc(OC)c(Cl)c1	2.62
Cn1ncc(Cl)c1C(=O)Nc1ccncc1	3.38
NC1=NC2(CCC(c3ccccc3)CC2)n2c(nc3ccccc32)N1 (stereo not drawn)	-1.84
CC(=O)NCCn1c(SCc2cccc([N+](=O)[O-])c2)nc2ccccc2c1=O	12.8
Cc1c(CNC(=O)c2nn3c(c2Cl)NC(c2ccccc2)CC3C(F)(F)F)cnn1C (stereo not drawn)	11.9

Compound	hERG current change (%, negative = inhibition) at 1uM [%]
COc1cccc(CNc2ccc(F)c(Cl)c2)c1	12.5
CCCn1c(C)cc(-c2csc(N)n2)c1C.Cl	11.3
Cn1cc(S(=O)(=O)c2ccccc2)c(=O)c2cc(F)c(N3CCOCC3)cc21	1.86
Cc1onc(-c2ccccc2)c1C(=O)N/N=C/c1ccc([N+](=O)[O-])s1	2.27
COC(=O)C1(CC2CC(c3cccc(Br)c3)=NO2)CCN(C(=O)OC(C)(C)C)CC1 (stereo not drawn)	3.69
CC(=O)N(CCCCl)C(C#N)c1ccccc1 (stereo not drawn)	13.8
Cc1ccc(C)c(Cc2c(C)nc(C)[nH]c2=O)c1	12.9
Cc1c(Cl)cccc1NC(=S)N1CCN(C(=O)c2ccco2)CC1	12.2
CCCCCCCCc1nnc(N)s1	-0.427
CCOc1cc(/C=C/c2ccc3cccc([N+](=O)[O-])c3n2)cc(Cl)c1O	12.4
CC(=O)C1CCC2C3CCC4=CC(=O)CC[C@]4(C)[C@@]3(F)C(O)C[C@]12C (stereo partly drawn)	15.9
NS(=O)(=O)c1cccnc1Nc1cccc(C(F)(F)F)c1	5.76
O=C(Nc1cc(Cl)ccc1Cl)c1ccc(-c2ccccc2)cc1	1.57
COc1ccc(C(C)C)cc1S(=O)(=O)N1CCC(C(=O)N2CCN(C)CC2)CC1	14.8
CN(C)c1nc(NCc2ccccc2)nc(N/N=C/c2ccccc2F)n1.Cl	19.3
CSc1nnc(CCCCCCCCc2nnc(SC)o2)o1	11.1
CC12CC3(C)CC(C)(C1)CC(C(=O)NCc1ccccn1)(C2)C3	6.5
COc1cccc(CNC(=O)CCC2CCCN(c3cc(C)nc(N4CCCC4)n3)C2)c1 (stereo not drawn)	-74
O=C(CSc1nnc(C2COc3ccccc3O2)o1)N1CCCc2ccccc21 (stereo not drawn)	11
COc1ccc(OC)c(CCNC(=O)c2ccc(CS(=O)Cc3cccc(Cl)c3)o2)c1 (stereo not drawn)	-4.05
CN1c2ccccc2C(C)(C)C12CC(c1cccc(S(=O)(=O)N3CCCC3)c1)=NO2 (stereo not drawn)	9.46
O=C(COC(=O)c1ccc(Cl)nc1)NCCNC(=O)COC(=O)c1ccc(Cl)nc1	6.44

Compound	hERG current change (%, negative = inhibition) at 1uM [%]
Cc1cccc(-c2n[nH]c(=S)n2/N=C/c2ccc(C)s2)c1	3.68
C[C@@H](O)CC#Cc1ccc2oc(=O)c(-n3cc(-c4ccsc4)nn3)cc2c1	12.4
Cn1c(-c2ccc3c(c2)OCO3)c(C(=O)O)c(=O)c2ccccc21	9.83
CCOC(=O)c1c(NC(=S)NCC2CCCO2)sc(C)c1C (stereo not drawn)	17.4
O=C(CN1C(=O)/C(=C/c2ccco2)SC1=S)Nc1ccc(O)c(C(=O)O)c1	13.1
NS(=O)(=O)c1ccc(NC(=O)CN2CCCC2)cc1	7.23
O=C(NC12CC3CC(CC(C3)C1)C2)c1ccc(-c2ccccc2Cl)o1	3.59
Cc1c(NC(=O)c2cc(-c3cccs3)on2)c(=O)n(-c2ccccc2)n1C	-8.63
CC(C)OP(=O)(OC(C)C)/C(C=O)=N\Nc1ccc([N+](=O)[O-])cc1	-17.6
Cc1ccc(N2C(=O)C3C(C2=O)N2C(c4cccs4)C4C(=O)N(c5ccc(C)cc5)C(=O)C4N2C3c2cccs2)cc1 (stereo not drawn)	6.33
CCN(C(=O)c1cc(Cl)ccc1OC)C1CCCCC1	-11.7
C/C(=N\NC(=O)c1ccc2c(c1)OCO2)c1ccc(NC(=O)CCCC(=O)O)cc1	16
Cc1cccc(OCC(=O)Nc2sc3c(c2C#N)CCC3)c1	12.8
CC(=O)N/C(=C\c1ccc(Br)s1)C(=O)O	14.9
C(=C\c1nnc2c3ccccc3ncn12)/c1ccccc1	11.4
CC(C)CN(C(=O)COC(=O)CNC(=O)c1ccccc1)c1c(N)n(Cc2ccccc2)c(=O)[nH]c1=O	6.99
Cc1[nH]c2ccccc2c1-c1nc(-c2ccc(Cl)cc2)nnc1-c1ccccc1	1.68
CN1CCN(Cc2cc3c(cc2[N+](=O)[O-])OCO3)CC1	6.29
Cc1cc(C(=O)N2CCc3ccccc32)c2cc(F)ccc2n1	5.46
CCc1nc(NCc2ccccc2)c(C#N)c2c1CCCC2	11.9
O=C1N/C(=N\N=C\c2ccco2)SC1Cc1ccc(F)cc1 (stereo not drawn)	9.49
